Assay results reported in PubChem BioAssay AID1508623 (National Center for Advancing Translational Sciences (NCATS), 2021).
Screen size: about 48,000 compounds; about 450 (0.94%) were called active. The shares of active, inactive and inconclusive entries below differ from those in the screen. Calls come from the whole dose curve; as a rule, active = well fitted inhibition curve with a large enough effect; inconclusive = small, poorly fitted or top-dose-only effect; inactive = no such curve, though single readings can be large or run the other way. Where the call is inconclusive, the potency comes from a doubtful curve fit.
Potency is the fitted concentration of half-maximal effect; tags give direction and shape of the fitted curve.

Experiment: Primary qHTS for Identification of Small Molecule Inhibitors of Huntingtin Promoter Activity; note: nearly all actives have a fitted effect of over 50% in size
Settings: HEK293 HTT promoter firefly luciferase reporter (activity 0% = vehicle and -100% = no light), 24 h; activity change, negative = inhibition: at 57.5 µM (top of the series)
Summary of the method: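 Luminescence was read after Dual-Glo reagent and a 10 min room-temperature incubation. Values were normalized to vehicle (0% activity) and zero RLU (-100% activity). Reporter HEK293 cells had been exposed to compounds (up to 57.5 uM final) for 24 h.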
With `CC1=C(c2ccc(C)cc2)S(=O)(=O)N(Cc2ccc(C(=O)NCc3ccccc3)cc2)C1=O` the Potency was inconclusive: 20 µM [inhibitor, partial curve, poor fit]. For `O=C(Nc1ccc(F)c(F)c1)c1cc(S(=O)(=O)N2CCc3ccccc32)ccc1F`, the Potency was inconclusive: 28.2 µM [inhibitor, partial curve, poor fit]. In the case of `Cc1ccc(CNS(=O)(=O)c2cc(C(=O)Nc3ccc(C(C)C)cc3)ccc2F)cc1`, the Potency is reported as inconclusive: 35.5 µM [inhibitor, partial curve, poor fit]. For `Cc1ccc(CNC(=O)CSCc2nc(-c3ccc(Cl)cc3)oc2C)cc1`, the Potency was inconclusive: 39.8 µM [inhibitor, single point]. With `COC(=O)c1ccccc1NC(=O)COCc1cc(-c2cccs2)on1` the Potency was inconclusive: 39.8 µM [inhibitor, single point]. In the case of `Cc1ccc(CN(C(=O)c2ccc(F)cc2)c2ccccn2)o1`, the “activity change, negative = inhibition” value is reported as inactive: 7.82%. With `O=C(NCc1ccc(F)cc1)C1CCN(S(=O)(=O)c2ccc3c(c2)CCCN3C(=O)C2CCC2)CC1` the Potency was inconclusive: 28.2 µM [inhibitor, partial curve]. In the case of `COc1ccc(Cl)cc1NC(=O)CSc1nc2c([nH]c3ccccc32)c(=O)n1-c1ccccc1`, the Potency is reported as inconclusive: 22.4 µM [inhibitor, partial curve, poor fit]. With `CN(Cc1ccccc1)Cc1c(O)ccc2c(=O)c(-c3ccccc3)c(C(F)(F)F)oc12` the Potency was inconclusive: 39.8 µM [inhibitor, partial curve, poor fit]. With `CCN(C(=O)c1sc2cc(OC)ccc2c1Cl)c1ccccc1` the Potency was inconclusive: 25.1 µM [inhibitor, single point]. With `CC(=O)c1cccc(NC(=O)c2sc(-n3nc(C)c(CCC(C)C)c3C)nc2C)c1` the Potency was inconclusive: 3.98 µM [inhibitor, partial curve, poor fit]. With `COc1ccc(-n2nnnc2C2CCN(S(=O)(=O)c3ccc(F)cc3Cl)CC2)cc1` the Potency was inconclusive: 25.1 µM [inhibitor, single point]. In the case of `Cc1ccc2ncc(S(=O)(=O)c3ccccc3)c(N3CCCCC3C)c2c1` (stereo unspecified), the Potency is reported as inconclusive: 39.8 µM [inhibitor, partial curve, poor fit]. In the case of `COc1ccc(C2=NC3(CCCCCC3)N(CC(=O)Nc3ccc(C)c(C)c3)C2=O)cc1`, the Potency is reported as inconclusive: 28.2 µM [inhibitor, single point]. For `Cc1ccccc1Nc1sc(C(=O)c2ccc(F)cc2)c(N)c1C(=O)NCCc1ccccc1`, the Potency was inconclusive: 39.8 µM [inhibitor, single point]. In the case of `O=C(Nc1ccc(C(=O)N2CCCCC2)cc1)c1nsc2ccccc12`, the “activity change, negative = inhibition” value is reported as inactive: -12.3%. With `O=C(Nc1nc2n(n1)C(c1ccccc1)C=C(c1ccccc1)N2)c1ccccc1` (stereo unspecified) the Potency was inconclusive: 31.6 µM [inhibitor, partial curve, poor fit]. In the case of `Fc1ccc(Nc2nc(SCc3cccc(Cl)c3)nc3ccccc23)cc1`, the Potency is reported as inconclusive: 39.8 µM [inhibitor, single point]. For `COc1ccc(CNC(=O)C2=C(C)C(=O)OC23CCCCC3)cc1OC`, the “activity change, negative = inhibition” value was inactive: -12.1%. With `CCCOc1ccc(CNC(=O)c2oc3ccc4c(c3c2C)C(=O)CC(C)(CC)O4)cc1` (stereo unspecified) the Potency was inconclusive: 39.8 µM [inhibitor, single point]. For `CSc1nc(-c2ccccc2Cl)nc2c1Cc1c(CO)cnc(C)c1O2`, the Potency was inconclusive: 39.8 µM [inhibitor, partial curve, poor fit]. With `COc1cccc(CNc2ncnc3onc(C)c23)c1` the Potency was inconclusive: 25.1 µM [inhibitor, partial curve, poor fit]. With `c1ccc(-c2cc3ncc4c(n3n2)-c2ccccc2OC4)cc1` the “activity change, negative = inhibition” value was inactive: 67.1%. For `O=C(Nc1c(C(=O)N2CCN(c3ccccc3F)CC2)oc2ccccc12)c1ccco1`, the Potency was inconclusive: 39.8 µM [inhibitor, partial curve, poor fit]. In the case of `O=C(NCCc1ccccc1)c1ccc2nc(N3CCCCC3)sc2c1`, the Potency is reported as inconclusive: 0.316 µM [inhibitor, full curve, poor fit]. With `OCC(O)CS` (stereo unspecified) the “activity change, negative = inhibition” value was inactive: 13.2%. In the case of `Cc1ccccc1NC(=O)c1cn(-c2ccccc2)nc1-c1ccccc1`, the Potency is reported as inconclusive: 31.6 µM [inhibitor, single point]. For `COc1cccc(C(=O)Nc2nc3ccc(S(=O)(=O)N4CCCC4)cc3s2)c1`, the Potency was inconclusive: 10 µM [inhibitor, partial curve, poor fit]. With `O=C(Nc1ccc(Br)cc1)c1cc(-c2cccs2)nc2ccccc12` the Potency was inconclusive: 31.6 µM [inhibitor, single point]. For `Cc1ccc(NS(=O)(=O)c2ccc(-c3cnc(C4CC4)o3)cc2)cc1N(C)C`, the Potency was inconclusive: 15.8 µM [inhibitor, partial curve, poor fit]. With `CC(C)Oc1ccc(C(=O)N2CCC(c3nc4ccccc4o3)CC2)cc1` the Potency was inconclusive: 28.2 µM [inhibitor, single point]. In the case of `CC(=O)Nc1ccc(NC(=O)CSc2nccn2Cc2ccc3c(c2)OCO3)cc1`, the Potency is reported as inconclusive: 39.8 µM [inhibitor, single point]. In the case of `O=C1CSC2(C(=O)N(Cc3ccccc3F)c3ccccc32)N1c1cccc(C(F)(F)F)c1` (stereo unspecified), the Potency is reported as inconclusive: 39.8 µM [inhibitor, single point]. With `Cc1ccc(NC(=O)CN2C(=O)COc3ccc(S(=O)(=O)N4CCCCCC4)cc32)cc1Cl` the Potency was inconclusive: 39.8 µM [inhibitor, single point]. With `O=C(Nc1ccc(OC(F)(F)F)cc1)C(Cc1ccccc1)NS(=O)(=O)c1cccc2nsnc12` (stereo unspecified) the Potency was inconclusive: 11.2 µM [inhibitor, partial curve, poor fit]. In the case of `COc1ncc(-c2ccc3nccc(-c4ccnnc4)c3c2)cc1NS(=O)(=O)c1ccc(F)cc1F`, the Potency is reported as inconclusive: 0.0077 µM [inhibitor, full curve]. With `CCN1CCN(CCCNC(=O)CS(=O)(=O)Cc2nc(-c3ccccc3C)oc2C)CC1` the “activity change, negative = inhibition” value was inactive: -16.7%. For `CC(C)CN(C[C@H](O)[C@H](Cc1ccccc1)NC(=O)O[C@H]1CCOC1)S(=O)(=O)c1ccc(N)cc1`, the “activity change, negative = inhibition” value was inactive: -9.18%. For `COc1cccc2sc(NC(=O)c3ccc(S(=O)(=O)N4CCC(C)CC4)cc3)nc12`, the Potency was active: 28.2 µM. In the case of `O=C(NCCCN1CCN(c2ccc(F)cc2)CC1)c1cc2c(Cl)nc3ccccc3c2s1`, the “activity change, negative = inhibition” value is reported as inactive: 4.36%. In the case of `CC1CCc2onc(C(=O)N3CCN(c4ccc(F)cc4)CC3)c2C1` (stereo unspecified), the Potency is reported as inconclusive: 35.5 µM [inhibitor, single point]. For `CCCCCN1C(C(=O)c2ccccc2)=C(NC(=O)c2ccc(C)cc2)c2ccccc2S1(=O)=O`, the Potency was inconclusive: 39.8 µM [inhibitor, partial curve, poor fit]. With `CC(=O)c1ccc(O)c(C(N)=O)c1` the “activity change, negative = inhibition” value was inactive: -3.99%. For `O=C(CSc1nc2cc3ccccc3cc2[nH]1)Nc1ccc(F)cc1`, the “activity change, negative = inhibition” value was inactive: -24.1%. For `CC(C)(C)OC(=O)N1CCC(c2c(C(=O)N3CCN(c4ccccc4F)CC3)cnn2-c2ccccc2Cl)CC1`, the Potency was inconclusive: 28.2 µM [inhibitor, single point]. For `CCCCCOc1ccc(Cn2c(=O)oc3ccc(C)cc32)cc1OC`, the Potency was inconclusive: 25.1 µM [inhibitor, partial curve, poor fit]. With `O=C(Nc1ccc(Cl)cc1Cl)c1cc(S(=O)(=O)N2CCCCCC2)ccc1F` the Potency was inconclusive: 39.8 µM [inhibitor, single point]. In the case of `CCCCS(=O)(=O)c1oc(-c2cccs2)nc1S(=O)(=O)c1ccc(F)cc1`, the Potency is reported as inconclusive: 39.8 µM [inhibitor, single point]. In the case of `O=C1CC(c2cc(F)cc(F)c2)c2cc3c(cc2N1)OCO3` (stereo unspecified), the Potency is reported as inconclusive: 35.5 µM [inhibitor, single point]. In the case of `Cc1cnc(Nc2ccc(F)cc2Cl)nc1-c1c[nH]c(C(=O)N[C@H](CO)c2cccc(Cl)c2)c1`, the Potency is reported as inconclusive: 21.7 µM [inhibitor, partial curve]. For `Cc1ccccc1CNC(=O)c1oc2c(c1C)-c1nn(Cc3ccc(Cl)cc3)cc1CC2`, the Potency was inconclusive: 28.2 µM [inhibitor, single point]. With `c1cc(OCCN2CCCCC2)cc(-c2n[nH]c3ccc(-c4ncn[nH]4)cc23)c1` the “activity change, negative = inhibition” value was inactive: -24.6%. With `COC(=O)c1ccccc1NC(=O)c1cnn(-c2ccc(F)cc2)c1-n1cccc1` the “activity change, negative = inhibition” value was inactive: -22%. With `Cc1ccc(CN2C(=O)c3ccccc3Sc3ccc(C(=O)NCc4ccco4)cc32)cc1` the Potency was inconclusive: 31.6 µM [inhibitor, partial curve, poor fit]. For `CCN(C(=O)C1CCC(CNS(=O)(=O)c2cccc3nsnc23)CC1)c1ccccc1` (stereo unspecified), the Potency was inconclusive: 14.1 µM [inhibitor, partial curve]. In the case of `CCN(C(=O)C1CCC(CNS(=O)(=O)c2cccc3nsnc23)CC1)c1cccc(C)c1` (stereo unspecified), the Potency is reported as inconclusive: 17.8 µM [inhibitor, partial curve]. For `O=C(Cc1ccc(NC(=O)N2CCSc3ncccc32)cc1)NCc1ccccc1`, the Potency was inconclusive: 5.62 µM [inhibitor, partial curve]. In the case of `Cc1cc(C)cc(NC(=O)Cn2c(=O)n(C(C)C)c(=O)c3oc4ccccc4c32)c1`, the “activity change, negative = inhibition” value is reported as inactive: -17.8%. With `COc1ccc(/C=C/C(=O)N2CCC(c3nc4ccccc4o3)CC2)cc1OC` the Potency was inconclusive: 39.8 µM [inhibitor, single point]. In the case of `Cc1ccc(NC(=O)c2ccc(=O)n(CC(=O)Nc3c(C)cc(C)cc3C)n2)cc1`, the Potency is reported as inconclusive: 17.8 µM [inhibitor, partial curve, poor fit]. With `CC(C)(C)c1ccc(C(=O)NNc2ncnc3c2cnn3-c2ccccc2)cc1` the “activity change, negative = inhibition” value was inactive: -25.1%.
